# In the supplement of paper PMC4604168 (melanoma cell lines):
# This is one part of the list. Most values come without repeats; read them as rough.
# Tested on: WM3619
# Assay: cell count relative to DMSO control; melanoma cells; higher = more viable cells
# Details: library dose: standard library concentration; 72 h
# 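Note: cells treated in 1,536-well plates, then fixed and DAPI-stained, with nuclei counted from automated high-throughput microscope images.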
row,SMILES,cell count [%]
1,"C[C@]1(O)C[C@@H](c2nc(-c3ccc4ccc(-c5ccccc5)nc4c3)c3c(N)nccn32)C1 + CCN(CC)CCCCNc1ncc2cc(-c3cc(OC)cc(OC)c3)c(NC(=O)NC(C)(C)C)nc2n1 [PD173074] (first compound 2 µM, partner dose 0.5 µM)",94.4
2,"Cn1cnc2c(F)c(Nc3ccc(Br)cc3Cl)c(C(=O)NOCCO)cc21 [selumetinib] + c1cc(-c2cnn3cc(-c4ccc(OCCN5CCCCC5)cc4)cnc23)ccn1 [Dorsomorphin] (first compound 0.075 µM, partner dose 2 µM)",109
3,"COc1cc([C@@H]2c3cc4c(cc3[C@@H](O[C@@H]3O[C@@H]5CO[C@@H](C)O[C@H]5[C@H](O)[C@H]3O)[C@H]3COC(=O)[C@H]23)OCO4)cc(OC)c1O [etoposide] + COc1cc2ncnc(Nc3ccc(Oc4ccccc4)cc3)c2cc1OC [SrcI1] (first compound 0.1 µM, partner dose 10 µM)",77.9
4,"Cn1cnc2c(F)c(Nc3ccc(Br)cc3Cl)c(C(=O)NOCCO)cc21 [selumetinib] + O=C(O)C(=O)Nc1sc2c(c1C(=O)O)CCNC2 [TCS401] (first compound 0.075 µM, partner dose 8.33333 µM)",59.2
5,"Cn1cnc2c(F)c(Nc3ccc(Br)cc3Cl)c(C(=O)NOCCO)cc21 [selumetinib] + CCc1ccc(CCOc2ccc(CC3SC(=O)NC3=O)cc2)nc1 [pioglitazone] (first compound 0.075 µM, partner dose 10 µM)",73.7
6,"Cn1cnc2c(F)c(Nc3ccc(Br)cc3Cl)c(C(=O)NOCCO)cc21 [selumetinib] + COC(=O)c1sccc1S(=O)(=O)Nc1ccc(Nc2ccccc2)cc1OC [GSK0660] (first compound 0.075 µM, partner dose 5 µM)",70.9
7,"CCN(CC)CCNC(=O)c1c(C)[nH]c(/C=C2\C(=O)Nc3ccc(F)cc32)c1C [sunitinib] + O=S(=O)(c1ccccc1)N(CC(F)(F)F)c1ccc(C(O)(C(F)(F)F)C(F)(F)F)cc1 [T0901317] (first compound 2 µM, partner dose 7 µM)",73.9
8,"COc1cc([C@@H]2c3cc4c(cc3[C@@H](O[C@@H]3O[C@@H]5CO[C@@H](C)O[C@H]5[C@H](O)[C@H]3O)[C@H]3COC(=O)[C@H]23)OCO4)cc(OC)c1O [etoposide] + Cc1cc([N+](=O)[O-])ccc1NS(=O)(=O)c1cc(Cl)ccc1Cl [FH535] (first compound 0.1 µM, partner dose 5 µM)",82.1
